In patent US12583836B2 (Anaxis Pharma Pty Ltd, priority 2020, dated 2026) one finds IC50 and Kd data, which are given here for 17 compounds.

In one assay the test system is U937 cells. The assay can be described thus: Counter screen: cell viability without the TSQ cocktail (CelltiterGlo). Set-up: species or system human. Conditions: read-out: Off-target effect (IC50 cell-based assay). How it is done: Counter screen: In parallel, all compounds were tested for their ability to affect cell viability. The same U937 cells were treated with compound in DMSO without the TSQ cocktail. This counter screen enabled evaluation of off-target effects. In this case, cell viability was measured by CelltiterGlo.

Another assay deals with T1, RIP1 (Homo sapiens, UniProt Q13546).
T1 construct: purchased DiscoverX (KINOMEscan service); host or cells: E. coli BL21-derived (T7 phage) or HEK293
T1 sequence (Q13546 1-671): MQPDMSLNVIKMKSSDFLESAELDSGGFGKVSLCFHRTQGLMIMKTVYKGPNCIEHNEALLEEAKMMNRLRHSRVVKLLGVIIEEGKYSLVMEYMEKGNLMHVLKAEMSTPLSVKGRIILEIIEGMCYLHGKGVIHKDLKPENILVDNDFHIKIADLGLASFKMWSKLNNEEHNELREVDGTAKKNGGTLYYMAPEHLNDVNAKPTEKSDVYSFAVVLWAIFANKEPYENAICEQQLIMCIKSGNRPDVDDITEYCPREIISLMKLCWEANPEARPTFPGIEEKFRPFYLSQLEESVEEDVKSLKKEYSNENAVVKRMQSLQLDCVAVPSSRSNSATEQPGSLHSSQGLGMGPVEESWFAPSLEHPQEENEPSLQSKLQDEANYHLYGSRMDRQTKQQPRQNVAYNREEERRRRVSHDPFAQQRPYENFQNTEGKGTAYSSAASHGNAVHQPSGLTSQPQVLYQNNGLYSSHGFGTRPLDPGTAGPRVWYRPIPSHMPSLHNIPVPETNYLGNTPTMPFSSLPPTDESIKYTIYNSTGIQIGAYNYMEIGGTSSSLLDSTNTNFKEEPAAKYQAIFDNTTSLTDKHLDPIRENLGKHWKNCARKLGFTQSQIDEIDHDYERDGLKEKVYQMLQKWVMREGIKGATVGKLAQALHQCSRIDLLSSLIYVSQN
The assay can be described thus: KINOMEscan binding assay, RIP1. Conditions: equilibrium dissociation constant, class symbols.

The next assay addresses T2, MLKL (full length) (Homo sapiens, UniProt Q8NB16).
T2 construct: purchased DiscoverX (KINOMEscan service); host or cells: E. coli BL21-derived (T7 phage) or HEK293
T2 sequence (Q8NB16 1-471): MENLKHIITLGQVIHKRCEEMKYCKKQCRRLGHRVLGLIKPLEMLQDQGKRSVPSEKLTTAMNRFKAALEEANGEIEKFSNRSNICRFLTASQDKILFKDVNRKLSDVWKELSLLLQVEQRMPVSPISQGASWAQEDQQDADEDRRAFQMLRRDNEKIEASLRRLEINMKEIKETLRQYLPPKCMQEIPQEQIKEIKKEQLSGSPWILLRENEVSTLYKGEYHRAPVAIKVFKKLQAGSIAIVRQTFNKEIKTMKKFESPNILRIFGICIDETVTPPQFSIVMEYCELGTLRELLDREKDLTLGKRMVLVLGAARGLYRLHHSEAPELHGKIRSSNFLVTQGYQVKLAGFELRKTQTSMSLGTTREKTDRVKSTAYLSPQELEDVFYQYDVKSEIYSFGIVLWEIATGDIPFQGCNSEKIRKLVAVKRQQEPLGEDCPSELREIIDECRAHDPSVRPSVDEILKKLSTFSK
The assay can be described thus: KINOMEscan binding assay, MLKL. Conditions: equilibrium dissociation constant, class symbols. From the text: The Hill Slope was set to −1.

The test system of assay [1] is U937 human histiocytic leukemia cell line. The assay can be described thus: Inhibition of TSQ induced necroptosis, 384 well plate format (CellTitre-Glo). Conditions: U937 cells, TSQ cocktail (TNF, Smac mimetic, Q-VD-OPh), CelltiterGlo, read-out: Inhibition of TSQ-induced necroptosis (IC50 cell-based assay). The procedure, abridged:
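Necroptosis was induced in U937 cells (20,000/well) by hTNF-Fc 100 ng/ml, Smac mimetic 500 nM and Q-VD-OPh 10 μM for 48 h at 37 °C. Compounds were run as a 10-point 1:3 series from 36 μM in 0.3% DMSO. Viability was read by CellTiter-Glo luminescence (DMSO = 100%, DMSO+TSQ = 0%), and IC50 was taken from a 4-parameter fit.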

Where [2] appears, read: Homo sapiens, U-937, cell viability by CelltiterGlo.

Like-named read-outs stand apart in the source and are kept apart here.

Turning to `CCC(Oc1cc(-c2n[nH]c(Nc3cnccn3)c2C(N)=O)ccc1NS(=O)(=O)C(F)F)c1ccc(F)cc1` (racemic) [Compound 233, 3-[4-(difluoromethanesulfonamido)-3-[1-(4-fluorophenyl)propoxy]phenyl]-5-[(pyrazin-2-yl)amino]-1H-pyrazole-4-carboxamide], the IC50 in the assay on U937 cells (setting [2]) is greater than 30 µM; in assay [1] (Homo sapiens, U-937), 0.01 to 1 µM. For the same compound, the dissociation constant (Kd) on RIP1 was greater than 30 µM; at MLKL (full length), less than 0.01 µM.

Take `CCS(=O)(=O)Nc1ccc(-c2n[nH]c(Nc3cnc(C(F)(F)F)cn3)c2C(N)=O)cc1OCc1ccc(F)cc1` [Compound 9, 3-(4-(ethylsulfonamido)-3-((4-fluorobenzyl)oxy)phenyl) 5-((5-(trifluoromethyl)pyrazin-2 yl)amino)-1H-pyrazole-4 carboxamide]: the IC50 in the assay on U937 cells (setting [2]) is greater than 30 µM; in assay [1] (Homo sapiens, U-937), 0.01 to 1 µM. Further, the Kd on RIP1 is greater than 30 µM; at MLKL (full length), less than 0.01 µM.

Regarding `CCS(=O)(=O)Nc1ccc(-c2n[nH]c(Nc3cnc(C)cn3)c2C(N)=O)cc1OCc1ccc(F)cc1` [Compound 22, 3-(4-(ethylsulfonamido)-3-((4-fluorobenzyl)oxy)phenyl)-5-((5-methylpyrazin-2-yl)amino)-1H-pyrazole-4-carboxamide], the IC50 in the assay on U937 cells (setting [2]) was greater than 30 µM; in assay [1] (Homo sapiens, U-937), 0.01 to 1 µM. For the same compound, the dissociation constant Kd on RIP1 is greater than 30 µM; at MLKL (full length), less than 0.01 µM.

As to `CCS(=O)(=O)Nc1ccc(-c2n[nH]c(Nc3cnccn3)c2C(N)=O)cc1OCc1ccccc1` [Compound 25, 3-(3-(benzyloxy)-4-(ethylsulfonamido)phenyl)-5-(pyrazin-2-ylamino)-1H-pyrazole-4-carboxamide], the IC50 with U937 cells (setting [2]) is greater than 30 µM; in assay [1] (Homo sapiens, U-937), 0.01 to 1 µM. For the same compound, the Kd at RIP1 was greater than 30 µM; at MLKL (full length), less than 0.01 µM.

With `CCS(=O)(=O)Nc1ccc(-c2n[nH]c(Nc3cnc(C(C)C)cn3)c2C(N)=O)cc1OCc1ccc(F)cc1` [Compound 34, 3-(4-(ethylsulfonamido)-3-((4-fluorobenzyl)oxy)phenyl) 5-((5-isopropylpyrazin-2-yl)amino)-1H-pyrazole-4-carboxamide], the IC50 in the assay on U937 cells (setting [2]) is greater than 30 µM; in assay [1] (Homo sapiens, U-937), 0.01 to 1 µM. The Kd at RIP1 was greater than 30 µM; at MLKL (full length), less than 0.01 µM.

For `NC(=O)c1c(-c2ccc(NS(=O)(=O)C(F)F)cc2)n[nH]c1Nc1cccc(C(F)(F)F)n1` [Compound 53, 3-(4-((difluoromethyl)sulfonamido)phenyl)-5-((6-(trifluoromethyl)pyridin-2-yl)amino)-1H-pyrazole-4-carboxamide], the IC50 with U937 cells (setting [2]) was greater than 30 µM; in assay [1] (Homo sapiens, U-937), 0.01 to 1 µM. Further, the Kd at RIP1 was greater than 30 µM; on MLKL (full length), less than 0.01 µM.

As for `CCS(=O)(=O)Nc1ccc(-c2n[nH]c(Nc3cnc(C(C)C)cn3)c2C(N)=O)cc1` [Compound 66, 3-(4-(ethylsulfonamido)phenyl)-5-((5-isopropylpyrazin-2-yl)amino)-1H-pyrazole-4-carboxamide], the IC50 with U937 cells (setting [2]) is greater than 30 µM; in assay [1] (Homo sapiens, U-937), 0.01 to 1 µM. The Kd on RIP1 is greater than 30 µM; at MLKL (full length) it was less than 0.01 µM.

`CCS(=O)(=O)Nc1ccc(-c2n[nH]c(Nc3cncc(C)n3)c2C(N)=O)cc1` [Compound 84, 3-(4-(ethylsulfonamido)phenyl)-5-((6-methylpyrazin-2-yl)amino)-1H-pyrazole carboxamide]: the half-maximal inhibitory concentration (IC50) with U937 cells (cell viability by CelltiterGlo) was greater than 30 µM; in assay [1], 1 to 30 µM. The Kd on RIP1 is greater than 30 µM; on MLKL (full length) it was less than 0.01 µM.

Regarding `CCS(=O)(=O)Nc1ccc(-c2n[nH]c(Nc3cnc(C)cn3)c2C(N)=O)cc1` [Compound 101, 3-(4-(ethylsulfonamido)phenyl)-5-((5-methylpyrazin-2-yl)amino)-1H-pyrazole-4-carboxamide], the IC50 in the assay with U937 cells (setting [2]) is greater than 30 µM; in assay [1] (Homo sapiens, U-937), 1 to 30 µM. Also, the figures for the Kd on RIP1 and on MLKL (full length) were greater than 30 µM and less than 0.01 µM, respectively.

For `CCS(=O)(=O)Nc1ccc(-c2n[nH]c(Nc3cnccn3)c2C(N)=O)cc1` [Compound 108, 3-(4-(ethylsulfonamido)phenyl)-5-(pyrazin-2-ylamino)-1H-pyrazole-4-carboxamide], the IC50 in the assay on U937 cells (setting [2]) was greater than 30 µM; in assay [1] (Homo sapiens, U-937), 1 to 30 µM. Besides, the figures for the Kd on RIP1 and at MLKL (full length) were greater than 30 µM and less than 0.01 µM, respectively.

On to `CCS(=O)(=O)Nc1ccc(-c2n[nH]c(Nc3ccnc(C)c3)c2C(N)=O)cc1` [Compound 113, 3-(4-(ethylsulfonamido)phenyl)-5-((2-methylpyridin-4-yl)amino)-1H-pyrazole-4-carboxamide], for which the IC50 with U937 cells (setting [2]) was greater than 30 µM; in assay [1] (Homo sapiens, U-937), 1 to 30 µM. For the same compound, the dissociation constant Kd was greater than 30 µM on RIP1 and less than 0.01 µM on MLKL (full length).

With `CCS(=O)(=O)Nc1ccc(-c2n[nH]c(Nc3ccnc(OC)n3)c2C(N)=O)cc1` [Compound 123, 3-(4-(ethylsulfonamido)phenyl)-5-((2-methoxypyrimidin-4-yl)amino)-1H-pyrazole-4-carboxamide], the IC50 is greater than 30 µM with U937 cells (setting [2]) and 1 to 30 µM in assay [1] (Homo sapiens, U-937). In addition, the dissociation constant (Kd) at RIP1 is greater than 30 µM; at MLKL (full length) it was less than 0.01 µM.

Consider `CCS(=O)(=O)Nc1ccc(-c2[nH]nc(Nc3ccnc(OCCOC)c3)c2C(N)=O)cc1` [Compound 127, 5-(4-(ethylsulfonamido)phenyl)-3-((2-(2-methoxyethoxy)pyridin-4-yl)amino)-1H-pyrazole-4-carboxamide], for which the IC50 with U937 cells (setting [2]) is greater than 30 µM; in assay [1] (Homo sapiens, U-937), 1 to 30 µM. For the same compound, the Kd on RIP1 was greater than 30 µM; at MLKL (full length), less than 0.01 µM.

Turning to `NC(=O)c1c(-c2ccc(NS(=O)(=O)CC(F)(F)F)cc2OCc2ccc(F)cc2)n[nH]c1Nc1cnccn1` [Compound 139, 3-(2-((4-fluorobenzyl)oxy)-4-((2,2,2-trifluoroethyl)sulfonamido)phenyl)-5-(pyrazin-2-ylamino)-1H-pyrazole-4-carboxamide], the IC50 in the assay with U937 cells (setting [2]) is greater than 30 µM; in assay [1] (Homo sapiens, U-937), 0.01 to 1 µM. Besides, the Kd is greater than 30 µM on RIP1 and less than 0.01 µM at MLKL (full length).

Consider `COc1cnc(Nc2[nH]nc(-c3ccc(NS(=O)(=O)CC(F)(F)F)c(OCc4ccc(F)cc4)c3)c2C(N)=O)cn1` [Compound 143, 3-(3-((4-fluorobenzyl)oxy)-4-((2,2,2-trifluoroethyl)sulfonamido)phenyl)-5-((5-methoxypyrazin-2-yl)amino)-1H-pyrazole-4-carboxamide], for which the IC50 in the assay on U937 cells (setting [2]) was greater than 30 µM; in assay [1] (Homo sapiens, U-937), 0.01 to 1 µM. The figures for the Kd at RIP1 and on MLKL (full length) were greater than 30 µM and less than 0.01 µM, respectively.

Take `CCS(=O)(=O)Nc1ccc(-c2n[nH]c(Nc3cnc(C)cn3)c2C(N)=O)cc1OCc1ccc(F)c(Cl)c1` [Compound 150, 3-(3-((3-chloro-4-fluorobenzyl)oxy)-4-(ethylsulfonamido)phenyl)-5-((5-methylpyrazin-2-yl)amino)-1H-pyrazole-4-carboxamide]: the IC50 is greater than 30 µM in the assay with U937 cells (setting [2]) and 0.01 to 1 µM in assay [1] (Homo sapiens, U-937). Further, the Kd on RIP1 is greater than 30 µM; at MLKL (full length), less than 0.01 µM.

Take `NC(=O)c1c(-c2ccc(NS(=O)(=O)CC(F)(F)F)c(OC3(c4ccccc4)CC3)c2)n[nH]c1Nc1cnccn1` [Compound 161, 3-(3-(1-phenylcyclopropoxy)-4-((2,2,2-trifluoroethyl)sulfonamido)phenyl)-5-(pyrazin-2-ylamino)-1H-pyrazole-4-carboxamide]: the IC50 with U937 cells (setting [2]) fell in the range of 1 to 30 µM; in assay [1] (Homo sapiens, U-937), 0.01 to 1 µM. Also, the Kd at RIP1 is greater than 30 µM; on MLKL (full length) it was less than 0.01 µM.
